Results published in PubChem BioAssay AID1671194 (National Center for Advancing Translational Sciences (NCATS), 2021).
In all, about 140,000 compounds went through this assay and about 240 (0.17%) were called active. This list was built around the results that the source calls inconclusive (neither active nor inactive); the mix of calls is not that of the screen. The call rests on the fitted dose curve; in most records, active means well fitted inhibition curve with a large enough effect; inconclusive means small, poorly fitted or top-dose-only effect; inactive means no such curve, though single readings can be large or run the other way. Potencies of inconclusive entries are doubtful fits and often do not repeat.

Test: Primary qHTS assay for inhibitors of alpha-synuclein gene (SNCA) expression; further: nearly all actives have a fitted effect of over 45% in size;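 on activity change, negative = inhibition: plate controls were DMSO cells for no effect and cell-free wells for full effect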
Conditions: HEK-293 SNCA-luciferase knock-in, luminescence, 24 h; activity change, negative = inhibition: at 57.2 µM (top of the series) unless noted
Potency means the concentration at half of the fitted maximal effect; tags describe the fitted curve by direction and shape.

Potency, inconclusive:
CS(=O)(=O)N1CC2(CCCCN2Cc2cccnc2)Cc2ccccc21 (configuration not stated) 39.8 µM [inhibitor, single point]
COc1cccc(Nc2nc3cc(C)ccc3nc2NS(=O)(=O)c2ccc(Cl)cc2)c1 31.6 µM [inhibitor, partial curve, poor fit]
COc1ccc(NC(=O)/C=C\C(=O)N(c2ccc(C(C)C)cc2)C(C(=O)NCc2ccco2)c2ccc(C)cc2)cc1 (configuration not stated) 17.8 µM [inhibitor, single point]
O=S(=O)(c1ccccc1)c1nc(-c2ccccc2Cl)oc1N1CCCCCC1 39.8 µM [inhibitor, single point]
Cc1ccc(CNC(=O)C(C)n2c(=O)cc(C(F)(F)F)c3c(C)nn(C)c32)cc1 (configuration not stated) 7.08 µM [inhibitor, single point]
O=C(Nc1cc(F)cc(C(F)(F)F)c1)N1CCCOC(Cn2cccn2)C1 (configuration not stated) 39.8 µM [inhibitor, single point]
Cc1ccccc1N(C)S(=O)(=O)c1nnc(NC(=O)c2ccco2)s1 1.78 µM [inhibitor, full curve, poor fit]
COCc1nc(C2CCN(C(=O)COc3ccc(F)cc3)C2)no1 (configuration not stated) 3.16 µM [inhibitor, single point]
Cc1ccc(Nc2ccnc(N3CCCC(C(=O)NCC4CCCCCC4)C3)n2)cc1 (configuration not stated) 5.01 µM [inhibitor, full curve]
Cc1cccc(OCCSc2nnc(-c3cccs3)o2)c1 39.8 µM [inhibitor, single point]
COCCNC(=O)c1cc(-c2ccc(Cl)cc2Cl)c2nncn2n1 4.47 µM [inhibitor, full curve]
O=C(c1nnc(CN2CCN(c3ccccn3)CC2)n1Cc1ccccc1)N1CCC[C@@H]1c1ccc(Br)cc1 39.8 µM [inhibitor, single point]
O=C(NCCC(c1ccccc1)c1ccccc1)c1cn(C2CCCCC2)nn1 8.91 µM [inhibitor, single point]
CCS(=O)(=O)c1ncc(Cl)c(C(=O)N2CCN(c3ccc(OC)cc3)CC2)n1 17.8 µM [inhibitor, partial curve, poor fit]
COc1ccc2c(CNCCc3ccc(SC)cc3)c(C(=O)O)n(Cc3ccc(F)cc3)c2c1 0.158 µM [inhibitor, single point]
Cc1ccsc1CCN1C(=O)N(c2ccccc2)C(=O)C1CC(=O)Nc1ccc(Cl)cc1 (configuration not stated) 39.8 µM [inhibitor, single point]
CCN(CC)C(=O)c1sc2c(c1C)c(=O)n(Cc1ccccc1)c(=O)n2Cc1ccccc1C 39.8 µM [inhibitor, single point]
c1cc(N[C@@H]2CCNC2)nc(-c2cnc3ccc(-c4cn[nH]c4)cn23)c1 0.0096 µM [inhibitor, full curve, poor fit]
CCOC(=O)CCNC(=O)N1CCC(OC2CCN(S(C)(=O)=O)CC2)CC1 3.16 µM [inhibitor, single point]
CS(=O)(=O)N(C1CCOCC1)C1CN(C(=O)c2cncc(Br)c2)C1 3.16 µM [inhibitor, full curve, poor fit]
CCC(C(=O)Nc1ccc2c(c1)CN(Cc1ccc(OC)cc1OC)C(=O)C(C)O2)c1ccccc1 (configuration not stated) 22.4 µM [inhibitor, single point]
Cc1ccc(-c2cn3c(n2)sc2cc(C(=O)NCCCN4CCCCCC4)ccc23)cc1 39.8 µM [inhibitor, single point]
O=C1[C@H]2CN(Cc3ccc(Cl)cc3)C[C@H]2C(=O)N1CCN1CCc2ccccc2C1 7.94 µM [inhibitor, full curve, poor fit]
Cc1cc(NC(=O)Cn2ccn3nc(-c4ccc(F)cc4)c(CO)c3c2=O)no1 3.16 µM [inhibitor, single point]
O=C(CSc1n[nH]c(-c2ccccc2Cl)n1)NCCCc1ccccc1 2.24 µM [inhibitor, partial curve, poor fit]
OC1(c2ccc(Cl)cc2)CCN(Cc2c[nH]c3ccccc23)CC1 8.91 µM [inhibitor, single point]
Cc1noc(C)c1CN1CC(N2CC(C(=O)NCc3ccccc3)CC2=O)C1 (configuration not stated) 17.8 µM [inhibitor, single point]
COc1ccccc1Nc1ccnc(N2CCCC(C(=O)NCc3ccc(F)cc3)C2)n1 (configuration not stated) 39.8 µM [inhibitor, single point]
Cn1c(C(=O)N2CCNc3cnc(Nc4cccc(C(F)(F)F)c4)nc3C2)cc2ccccc21 20 µM [inhibitor, partial curve, poor fit]
COc1cc(CNCc2ccccc2C)ccc1OCC(O)CN1CCC(O)CC1 (configuration not stated) 17.8 µM [inhibitor, single point]
CCOC(=O)C1=C(CN2CCN(c3ccc(Cl)cc3)CC2)NC(=O)NC1c1ccc(OC)cc1 (configuration not stated) 7.08 µM [inhibitor, single point]
CCCCCCOc1ccc(/C=C/C(=O)Nc2sc3c(c2C(=O)OC)CCC3)cc1OC 14.1 µM [inhibitor, partial curve, poor fit]
O=C(NC1CCCC1)C1CCCCN1Cc1ccc(-c2cccs2)cc1 (configuration not stated) 39.8 µM [inhibitor, single point]
CC(C)c1cccc(NC(=O)CN2C(=O)C(c3ccccc3)=NC2(C)C)c1 1.58 µM [inhibitor, full curve, poor fit]
Cc1ccc(Nc2ccnc(N3CCCC(C(=O)NC4CC4)C3)n2)cc1 (configuration not stated) 56.2 µM [inhibitor, single point]
CCN(C1CCOCC1)C1CN(C(=O)C2CCOC2)C1 (configuration not stated) 3.98 µM [inhibitor, single point]
COc1ccc(Nc2oc(-c3ccc(COc4cccc(C)c4)o3)nc2C#N)cc1 35.5 µM [inhibitor, single point]
CC(C)c1ccc(C2Sc3ccccc3NC3=C2C(=O)c2ccccc23)cc1 (configuration not stated) 12.6 µM [inhibitor, partial curve, poor fit]
O=C(c1c(F)cccc1F)N1CCCC2(C1)NC(=O)N(Cc1cccc(Cl)c1)C2=O (configuration not stated) 7.08 µM [inhibitor, single point]
CCOc1cccc(CNC(=O)c2ccc3c(c2)N(S(=O)(=O)c2ccccc2)CC3)c1 17.8 µM [inhibitor, single point]
Cc1cc(C)c(C)c(S(=O)(=O)NC2CCN(c3ccc(=O)n(CC4CC4)n3)CC2)c1C 39.8 µM [inhibitor, single point]

Activity change, negative = inhibition, inactive:
Cc1cccc(N2CCN(C(=O)c3noc(-c4ccc[nH]c4=O)n3)CC2)c1 5.6%
CC1(C(=O)N2CCOCC2)CN(Cc2ccccc2)Cc2ccc(Nc3ccccc3)nc21 (configuration not stated) -25.6%
O=C(NCCc1ccccc1)[C@@H]1C[C@H](c2ccc(F)cc2)N([S+](=O)([O-])C2CC2)C1 -12.7% [at 87.6 µM]
CCOC(=O)CCCOc1cccn2c(=O)c(-c3cc(C)n(-c4ccc(Cl)cc4)n3)c(C)nc12 -19.8%
Cc1ccc(-c2c(C(=O)NCCc3ccccc3)nc3sccn23)cc1 18.6%
Cc1ccc(C(=O)N2CCN(c3nnc4cccc(C)n34)CC2)cc1C 5.43%
OC[C@@H]1CN(Cc2cccc3[nH]ccc23)C[C@H]1c1ccncc1 -28.2%
CC(=O)Nc1ccc(CN2CCC[C@H]2c2nc(-c3ccc(N4CCC(C(N)=O)CC4)nc3)no2)cc1 -9.97%
COc1ccc(N2CC(C(=O)N3CCOCC3)NC2=O)cc1 (configuration not stated) -1.47% [at 87.6 µM]
Cc1ccccc1-c1ccnc(-c2nnc(C)n2Cc2ccccc2)c1 11.8% [at 87.6 µM]
COC(=O)[C@@H]1Cc2nc[nH]c2CN1C(C)C 11% [at 87.6 µM]
CNC(=O)CCNc1c(-c2cccc(F)c2)nc2cnccn12 14.2%
CC1(NC(=O)C2CC2)CN(Cc2nc(-c3cccc(F)c3)cs2)C1 2.21% [at 87.6 µM]
Cc1cc(C(=O)N2CCC(c3noc(-c4cnccn4)n3)C2)nn1C (configuration not stated) -9%
CN(CCc1ccccn1)C(=O)c1cn(CCN2CCNCC2)nn1 -0.184%
C[C@H](C(=O)N1Cc2ccccc2CC2(CCN(Cc3ccncc3)CC2)C1)c1ccccc1 12.6%
COc1ccc2c(c1)CCc1c-2n[nH]c1C(=O)N1CCc2c(nc3cc(-c4ccccc4)[nH]n3c2=O)C1 6.75%
CCC(=O)N1CCN(c2nc3c(s2)CC(C(=O)O)CC3)CC1 (configuration not stated) 141%
CNC(=O)c1cccnc1N1CCOC(c2ccc3cc(OC)ccc3c2)C1 (configuration not stated) 107%
Cn1cc(-c2nc(N3CCOCC3)cc3c2CN(CC2CC2)C3=O)cn1 14.6% [at 87.6 µM]
Cc1nn(C)c2c1c(C(F)(F)F)cc(=O)n2CC(=O)NCc1ccc(OC(C)C)cc1 -4.81%
Cc1c(O)nc(SCC(=O)Nc2ccc(Cl)cc2Cl)n(-c2ccc(F)cc2)c1=O -2.69%
CC(=O)N1C[C@@H]2CCCN3CCC[C@@H]([C@H]23)[C@H]1CCCC(=O)NCCCN1CCCCC1 12.3%
Cc1ccc2c(c1)cc1c(=O)n(Cc3cccc(Cl)c3)nc(C)n12 5.05%
Cc1cccc(S(=O)(=O)Nc2cccc(-c3ccc(N4CCCCC4)nn3)c2)c1 91.9%
COC1CN(c2ccc(C)cc2)C12CCN(C(=O)CCCc1ccccc1)CC2 (configuration not stated) 10.6%
